Assay results reported in PubChem BioAssay (NCATS).
Inconclusive means that the source gave no clear call. Such entries were picked first, then a sample of the others. For part of these data: Potencies of inconclusive entries are doubtful fits and often do not repeat. The source made the active and inactive calls. Unless noted, calls come from the whole dose curve; as a rule, active = well fitted curve in the direction sought with a large enough effect; inconclusive = small, poorly fitted or top-dose-only effect, or another doubt; inactive = no such curve, though single readings can be large; an effect the other way counts as inactive or inconclusive.

Legend:
[1] = qHTS Assay for Identification of Small Molecule Agonists for Hypoxia Response Element Signaling Pathway (AID 914; active = well fitted activation curve with a large enough effect in the signal ratio, with a control signal flat, not every such curve was filed as active; inconclusive = small, poorly fitted or top-dose-only effect, or effect the other way, or a change in a side signal; the % refers to the signal ratio; note: top concentration of the series differs between compounds; % of control where 0% means no effect); conditions: ME-180 (cervical carcinoma) HRE-bla reporter, beta-lactamase ratio, CoCl2, 17 h; activation: active compounds read high
In short: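 qHTS titration; ME-180 HRE-bla cells; EC50 CoCl2 co-treatment, 17 h at 37 degrees Celsius; CCF4 dye, ex 405nm, em 460nm and 530nm; %Activity from ratio; AC50.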

[2] = qHTS of pediatric cancer cell lines to identify multiple opportunities for drug repurposing: Primary screen for TC32 cells (AID 1347089); note: % is set by controls: 0 for no effect and ±100 for the full control effect; nearly all actives have a fitted effect of over 60% in size
In short: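 TC32 cells, 500-1,000/well in growth medium, compound-treated 48 h at 37 °C; viability from CellTiter-Glo luminescence. Primary screen: MIPE 11-point (0.78 nM–46 µM final), NPC 8-point (0.59 nM–46 µM final); confirmatory at 11-point dilutions.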

[3] = qHTS of pediatric cancer cell lines to identify multiple opportunities for drug repurposing: Primary screen for Rh41 cells (AID 1347108);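 note: luminescence drop marks cytotoxic hits; nearly all actives have a fitted effect of over 70% in size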
In short: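 Primary screen of approved and investigational compounds on cells in growth media at 37 degrees C, 5% CO2. MIPE set at 11-point and NPC set at 8-point dilutions; viability scored by ATP-based luminescence at 48 hours.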

[4] = Primary qHTS for inhibitors of nuclear receptor binding SET domain protein 2 (NSD2) in an isogenic RCH-ACV NSD2 p.E1099K mutant (9B) (AID 1645876); note: nearly all actives have a fitted effect of over 70% in size; note: potency is the fitted concentration of half-maximal effect
[5] = system: HEK293; assay: Cytotoxic Profiling of Annotated Libraries Using Quantitative High-Throughput Screening (AID 1296008); conditions: Five cell lines viability, CellTiter-Glo ATP luminescence, 48-72 h; max response: active compounds read low; note: nearly all actives have a fitted effect of over 60% in size; note: potency is the fitted concentration of half-maximal effect; for max response: % is set by controls: 0 for no effect and ±100 for the full control effect
In short: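 Cytotoxicity was measured as CellTiter-Glo ATP luminescence, read after 10 min at room temperature. Compound treatment of the cells lasted 48 or 72 hr at 37 degrees Celsius in a qHTS format.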

[6] = Primary qHTS for small molecule stabilizers of the endoplasmic reticulum resident proteome: Secreted ER Calcium Modulated Protein (SERCaMP) assay (AID 1508630); conditions: SH-SY5Y GLuc-SERCaMP (Gaussia luciferase released on ER calcium loss) secretion, thapsigargin, luminescence; activity change, negative = inhibition: at 38.4 µM (top of the series) unless noted; note: potency is the fitted concentration of half-maximal effect
In short: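 The SH-SY5Y reporter protocol was run at 3 concentrations up to 38.3 uM (primary) or 11 concentrations (follow-up): 16 h compound, 100 nM thapsigargin for 4 h, then extracellular luciferase luminescence.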

[7] = system: Zika virus NS2B-NS3 protease (unlinked complex); assay: Primary screen GU Rhodamine qHTS for Zika virus inhibitors: Unlinked NS2B-NS3 protease assay (AID 1347159); note: potency is the fitted concentration of half-maximal effect; nearly all actives have a fitted effect of over 60% in size
In short: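 Buffer 10 mM Tris-HCl pH 8.0, 0.01% Tween 20. Unlinked protease 25 nM; compound preincubation 15 min, RT, protected from light. Substrate Rhod110, 1.5 microM; ~15% conversion in 15 min.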

[8] = Primary fluorescence-based thiol-reactive (MSTI) qHTS assay for identification of artifact compounds. (AID 1845221);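 note: potency is the fitted concentration of half-maximal effect; thiol-reactive compounds lower the probe fluorescence signal; nearly all actives have a fitted effect of over 65% in size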
In short: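 A multi-concentration qHTS design tested compounds against 4 uM MSTI, pH 7.4 phosphate-buffered saline. Plates were protected from light for 1 h at room temperature before imaging fluorescence.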

[9] = system: Zika virus NS2B-NS3 protease (linked construct); assay: Primary screen NINDS Rhodamine qHTS for Zika virus inhibitors (AID 1347160); conditions: activity change, negative = inhibition: at 57.1 µM (top of the series) unless noted; note: potency is the fitted concentration of half-maximal effect; nearly all actives have a fitted effect of over 55% in size
In short: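 Aprotinin served as in-plate control. Conditions: 25 nM linked NS2B-NS3, pH 8.0 Tris buffer, titrated compounds, 15 min preincubation and 15 min reaction with 1.5 microM Rhod110 substrate at room temperature.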

[10] = Primary redox qHTS assay for identification of artifact compounds. (AID 1845223); conditions: Amplex Red/HRP redox cycling with DTT, fluorescence; redox activity (% of DA3003): at 53.8 µM (top of the series); note: potency is the fitted concentration of half-maximal effect;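 for redox activity (% of DA3003): 0% = DMSO and 100% = reference compound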
In short: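 Redox-cycling detection via DTT (250 uM final) oxidation coupled to Amplex Red (25 uM)/HRP (250 mU/mL) in HBSS. 15 min preincubation plus 30 min after DTT, room temperature. Ex/Em 525/598 nm; 4-parameter Hill fit against DMSO and 10 uM DA3003.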

[11] = ZIKV-mCherry secondary qHTS for Zika virus inhibitors (AID 1347158); note: potency is the fitted concentration of half-maximal effect
In short: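 Read-out is percent infection: mCherry-positive Vero cells (nuclear-proximal intensity >450 RFU, 3 SD above negative controls) counted by high-content imaging of Hoechst-stained, PFA-fixed wells after 48-72 h with ZIKV-mCherry at MOI 1 and compound.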

[12] = system: Zika virus NS2B-NS3 protease (linked construct); assay: 384 well plate NINDS Rhodamine confirmatory qHTS for Zika virus inhibitors (AID 1347164);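 note: fluorescence from protease cleavage of Ac-LKRR-rhodamine 110 substrate; top concentration of the series differs between compounds; plate controls were no-inhibitor control for no effect and no-enzyme control for full effect; nearly all actives have a fitted effect of over 65% in size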
In short: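 Linked NS2B-NS3 protease (final 5, 30 or 60 nM) preincubated ~15 minutes with compounds, then 10 microM Ac-LKRR-Rhodamine 110 added. Fluorescence (485/538 nm) read after 25 minutes at room temperature, normalized to no-enzyme and no-inhibitor controls.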

[13] = Tertiary RLuc qRT-PCR qHTS assay for Zika virus inhibitors (AID 1347169); note: potency is the fitted concentration of half-maximal effect; nearly all actives have a fitted effect of over 55% in size
In short: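 Vero cells (1,000/well) infected with recombinant ZIKV-RLuc (Cambodian) at MOI 1-2 after compound addition, 48-72 hrs at 37 degrees C. Live-cell Renilla luciferase substrate added; luminescence read after 1-1.5 hrs.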

[14] = biological target: Cytochrome P450 2D6 (Homo sapiens) (UniProt P10635); assay: Cytochrome P450 family 2 subfamily D member 6 (CYP2D6) small molecule antagonists: luciferase biochemical (cell-free) qHTS assay (AID 1645840; active = well fitted curve in the direction sought with a large enough effect in the repeat runs; inconclusive = weak or mixed curves; inactive = no such curve, though single readings can be large; an effect the other way counts as inactive or inconclusive; note: potency is the fitted concentration of half-maximal effect; nearly all actives have a fitted effect of over 55% in size)
UniProt P10635, sequence (P10635 whole entry, looked up): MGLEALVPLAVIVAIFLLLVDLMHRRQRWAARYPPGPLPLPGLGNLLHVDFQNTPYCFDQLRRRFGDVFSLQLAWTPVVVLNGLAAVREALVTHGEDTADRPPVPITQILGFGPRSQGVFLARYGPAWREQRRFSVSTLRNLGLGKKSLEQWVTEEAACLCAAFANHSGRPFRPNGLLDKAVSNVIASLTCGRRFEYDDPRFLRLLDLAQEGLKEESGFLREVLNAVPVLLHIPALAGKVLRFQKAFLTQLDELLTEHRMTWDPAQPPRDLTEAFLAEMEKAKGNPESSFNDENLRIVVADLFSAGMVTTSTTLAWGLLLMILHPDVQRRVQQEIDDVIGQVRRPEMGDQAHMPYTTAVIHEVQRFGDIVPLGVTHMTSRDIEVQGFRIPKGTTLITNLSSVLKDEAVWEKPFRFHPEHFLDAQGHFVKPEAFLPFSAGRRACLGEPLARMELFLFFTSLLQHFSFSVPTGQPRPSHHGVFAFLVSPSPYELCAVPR
In short: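 P450-Glo CYP2D6 system: proluciferin substrate converted by enzyme to luciferin, read by luminescence proportional to activity. Enzyme-substrate mix with compound 10 min at room temperature, then NADPH regeneration 1 h before detection reagent.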

[15] = Primary qHTS for inhibitors of nuclear receptor binding SET domain protein 2 (NSD2) in an RCH-ACV wild type WT cells (2C) (AID 1645877); conditions: activity change, negative = cell killing: at 44.9 µM (top of the series) unless noted; note: nearly all actives have a fitted effect of over 70% in size; note: potency is the fitted concentration of half-maximal effect
[16] = biological target: Phospholipid hydroperoxide glutathione peroxidase GPX4 (Homo sapiens) (UniProt P36969); assay: Primary qHTS Assay for Inhibitors of Recombinant Selenoprotein Glutathione Peroxidase 4 (GPX4) (AID 1845192); note: potency is the fitted concentration of half-maximal effect; nearly all actives have a fitted effect of over 65% in size
UniProt P36969, sequence (P36969 whole entry, looked up): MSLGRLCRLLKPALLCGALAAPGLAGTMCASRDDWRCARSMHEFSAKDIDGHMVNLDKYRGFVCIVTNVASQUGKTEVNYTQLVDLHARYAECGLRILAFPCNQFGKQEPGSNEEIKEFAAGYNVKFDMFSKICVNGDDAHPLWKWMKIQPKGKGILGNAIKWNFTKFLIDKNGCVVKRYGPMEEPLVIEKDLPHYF
In short: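 NADPH consumption followed by fluorescence at 340/450 nm, t=0 and after 15 min at room temperature. Reaction started with cumene hydroperoxide (0.5 mM final) after 30 min compound–GPX4 preincubation; final 200 nM GPX4, 100 nM GR, 1 mM GSH, 0.5 mM NADPH.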

[17] = biological target: Cytochrome P450 3A4 (Homo sapiens) (UniProt P08684); assay: Cytochrome P450 family 3 subfamily A member 4 (CYP3A4) small molecule antagonists: luciferase qHTS assay (AID 1645841; active = well fitted curve in the direction sought with a large enough effect in the repeat runs; inconclusive = weak or mixed curves; inactive = no such curve, though single readings can be large; an effect the other way counts as inactive or inconclusive; note: potency is the fitted concentration of half-maximal effect; nearly all actives have a fitted effect of over 45% in size)
UniProt P08684, sequence (P08684 whole entry, looked up): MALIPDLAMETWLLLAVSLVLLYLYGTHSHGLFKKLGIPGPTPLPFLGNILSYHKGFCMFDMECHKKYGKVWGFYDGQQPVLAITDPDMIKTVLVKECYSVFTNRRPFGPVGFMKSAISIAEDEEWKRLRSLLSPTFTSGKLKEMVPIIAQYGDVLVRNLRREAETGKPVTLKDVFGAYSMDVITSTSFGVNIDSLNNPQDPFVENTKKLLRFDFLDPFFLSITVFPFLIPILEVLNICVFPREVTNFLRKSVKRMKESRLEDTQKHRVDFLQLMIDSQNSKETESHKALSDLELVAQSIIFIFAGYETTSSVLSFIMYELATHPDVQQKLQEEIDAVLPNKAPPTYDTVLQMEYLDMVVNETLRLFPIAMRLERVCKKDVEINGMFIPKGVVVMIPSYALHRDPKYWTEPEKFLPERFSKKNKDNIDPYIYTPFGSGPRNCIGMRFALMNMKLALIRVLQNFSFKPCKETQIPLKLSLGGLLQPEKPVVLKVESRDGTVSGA
In short: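 Luminescent CYP3A4 activity readout: compounds plus enzyme-substrate mix 10 min at room temperature, reaction started with NADPH regenerating system for 1 h, stopped with detection reagent, read after 20 min. Ketoconazole served as control.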
Tags give direction and shape of the fitted curve.

CC(=O)N[C@@H](CC(C)C)C(=O)O
activation [1]: inactive: -5.35%
Potency [2]: inactive
Potency [3]: inactive
Potency [4]: inactive
max response [5]: inactive: -5.66%

COc1ccccc1OCC(O)CO (stereo unspecified)
Potency [2]: inactive
Potency [6]: inconclusive: 2.82 µM [inhibitor, full curve]
max response [5]: inactive: -2.29%

C=C(CO[C@@H]1O[C@H](CO[C@@H]2OC[C@](O)(CO)[C@H]2O)[C@@H](O)[C@H](O)[C@H]1O)C1Cc2cc(C(C)=O)ccc2O1 (stereo partly specified)
Potency [7]: inconclusive: 17.8 µM [inhibitor, full curve, poor fit]
Potency [8]: active: 5.19 µM
max response [5]: inactive: -4.65%

CC(=O)OC[C@H]1O[C@H](O[C@]2(CO)O[C@H](CO)[C@@H](OC(=O)/C=C/c3ccccc3)[C@@H]2O)[C@H](O)[C@@H](O)[C@@H]1O
Potency [7]: inconclusive: 25.1 µM [inhibitor, partial curve, poor fit]
Potency [9]: inconclusive: 7.08 µM [inhibitor, partial curve, poor fit]
Potency [10]: inconclusive: 14.6 µM [activator, partial curve, poor fit]
max response [5]: inactive: 2.62%

O=C(O)c1cc(N(Cc2ccc(C3CCCCC3)cc2)C(=O)c2ccc(Oc3ccccc3)cc2)ccc1O
Potency [11]: inconclusive: 7.94 µM [inhibitor, full curve, poor fit]
Potency [7]: active: 1.26 µM
Potency [12]: inactive
Potency [13]: inconclusive: 37 µM [inhibitor, single point]
Potency [14]: inconclusive: 30.1 µM [inhibitor, single point]
Potency [4]: inconclusive: 29 µM [inhibitor, single point]
Potency [15]: inconclusive: 9.16 µM [inhibitor, partial curve, poor fit]
Potency [16]: inconclusive: 20.2 µM [inhibitor, single point]
Potency [5]: inconclusive: 25.9 µM [inhibitor, single point]

CC1CCC2(C)CCC3(C)C(=CCC4C5(C)CCC(O)C(C)(C(=O)O)C5CCC43C)C2C1C (stereo unspecified)
Potency [9]: inconclusive: 10 µM [inhibitor, single point]
Potency [4]: inactive
max response [5]: inactive: -6.34%

C[C@@H](NC(=O)c1ccc(C#Cc2cccc(F)c2)cn1)C(C)(C)O
Potency [17]: inconclusive: 37.9 µM [falling, partial curve, poor fit]
Potency [5]: inconclusive: 29.1 µM [inhibitor, single point]

CCCCS(=O)(=O)NC(Cc1ccc(OCCCCC2CCNCC2)cc1)C(=O)O (stereo unspecified)
Potency [4]: inactive
Potency [10]: inactive
max response [5]: inactive: -14%

Cn1cc(CCn2cnc(-c3cnn(C)c3)c2-c2ccc(C#N)cc2)cn1
Potency [15]: inactive
max response [5]: inactive: 0.036%

CC(=O)NC1C(OC(C)(C)C2CCC3(C)C=C(C4CCC5C4(C)CC(O)C4OC(C(C)(C)O)CCC45C)CCC3O2)OC(CO)C(O)C1O (stereo unspecified)
Potency [8]: inconclusive: 0.998 µM [inhibitor, full curve]
max response [5]: inactive: -2.64%
